Measured values reported in article PMC11149917, “Translational and Therapeutic Evaluation of RAS-GTP Inhibition by RMC-6236 in RAS-Driven Cancers” (Cancer Discovery, 2024).
Further values from the same series stand in other lists.

Tested on: PRISM panel of 845 cancer cell lines
Assay: PRISM assay
Format: cell-based, human
Method: The PRISM cell set comprised 845 cell lines representing more than 45 lineages (see Supplementary Table S1 for cell line information), which largely overlapped with the Cancer Cell Line Encyclopedia; https://portals.broadinstitute.org/ccle). Cell lines were grown in RPMI without phenol red and supplemented with 10% or 20% FBS for adherent and suspended lines, respectively. Parental cell lines were stably infected with a unique 24-nucleotide DNA barcode via lentiviral transduction and blasticidin selection. After selection, barcoded cell lines were expanded and subjected to quality control (Mycoplasma contamination test, an SNP test for confirming cell line identity, and barcode ID confirmation). Approved cell lines were then pooled (20–25 cell lines per pool) based on doubling time similarity and frozen in assay-ready vials.
RMC-6236 was added to 384-well plates at 8-point concentration with 3-fold dilutions in triplicate. These assay-ready plates were then seeded with the thawed cell line pools. Adherent cell pools were plated at 1,250 cells per well, whereas suspension and mixed adherent/suspension pools were plated at 2,000 cells per well. Treated cells were incubated for 5 days, and then lysed. Lysate plates were collapsed together prior to barcode amplification and detection.
Each cell line's unique barcode is located in the 3′UTR of the blasticidin-resistance gene and therefore is expressed as mRNA. Total mRNA was captured using magnetic particles that recognize polyA sequences. Captured mRNA was reverse-transcribed into cDNA and then the sequence containing the unique PRISM barcode was amplified using PCR. Finally, Luminex beads that recognize the specific barcode sequences in the cell set were hybridized to the PCR products and detected using a Luminex scanner which reports the signal as a median fluorescent intensity (MFI).
• Each detection well contained 10 control barcodes in increasing abundances as spike-in controls. For each plate, we first create a reference profile by calculating the median of the log2(MFI) values across negative control wells for each of these spiked-in barcodes. • For each well, a monotonic smooth p-spline was fitted to map the spike-in control levels to the reference profile. Next, we transform the log2(MFI) for each cell barcode using the fitted spline to allow well-to-well comparisons by correcting for amplification and detection artifacts. • Next, the separability between negative and positive control treatments was assessed. In particular, we calculated the error rate of the optimum simple threshold classifier between the control samples for each cell line and plate combination. The error rate is a measure of the overlap of the two control sets and was defined as error = (FP + FN)/n, where FP is false positives, FN is false negatives, and n is the total number of controls. A threshold was set between the distributions of positive and negative control log2(MFI) values (with everything below the threshold said to be positive and above said to be negative) such that this value is minimized. Additionally, we also calculated the dynamic range of each cell line. […] Additionally, any cell line that had less than 2 passing replicates was also omitted for the sake of reproducibility. Finally, we computed viability by normalizing with respect to the median negative control for each plate.
For every gene with nonsilent mutations in at least four cell lines, we compared the AUC values between cells with and without those mutations using a t test. This analysis was carried out for (i) the full data set; (ii) excluding cell lines with nonsilent KRAS mutations; and (iii) excluding cell lines that have either KRAS or NRAS nonsilent mutations.

For CCn1c(-c2cc(N3CCN(C)CC3)cnc2[C@H](C)OC)c2c3cc(ccc31)-c1csc(n1)C[C@H](NC(=O)[C@H]1C[C@@H]1C)C(=O)N1CCC[C@H](N1)C(=O)OCC(C)(C)C2 [RMC-6236], the “RMC-6236: RevMed PRISM: AUC” value (cell line NCIH1092_LUNG) was 0.5942, the “RMC-6236: RevMed PRISM: AUC” value (cell line NCIH1355_LUNG, KRAS p.G13C) was 0.7086 and the “RMC-6236: RevMed PRISM: AUC” value (cell line NCIH1838_LUNG) was 0.7614. For the same compound, the “RMC-6236: RevMed PRISM: AUC” value (cell line NCIH2004RT_SOFT_TISSUE) was 0.7903, the “RMC-6236: RevMed PRISM: AUC” value (cell line NCIH2122_LUNG, KRAS p.G12C) was 0.5446 and the “RMC-6236: RevMed PRISM: AUC” value (cell line NCIH2126_LUNG) was 0.8436. For the same compound, the “RMC-6236: RevMed PRISM: AUC” value (cell line NCO2_HAEMATOPOIETIC_AND_LYMPHOID_TISSUE) was 0.8057, the “RMC-6236: RevMed PRISM: AUC” value (cell line NZOV9_OVARY, KRAS p.T20A) was 0.4737 and the “RMC-6236: RevMed PRISM: AUC” value (cell line OC314_OVARY) was 0.8682. The “RMC-6236: RevMed PRISM: AUC” value (cell line OC316_OVARY) was 0.7843, the “RMC-6236: RevMed PRISM: AUC” value (cell line OCIAML2_HAEMATOPOIETIC_AND_LYMPHOID_TISSUE) was 0.6488 and the “RMC-6236: RevMed PRISM: AUC” value (cell line OCIAML3_HAEMATOPOIETIC_AND_LYMPHOID_TISSUE, NRAS p.Q61L) was 0.3731. For the same compound, the “RMC-6236: RevMed PRISM: AUC” value (cell line OCIAML5_HAEMATOPOIETIC_AND_LYMPHOID_TISSUE) was 0.5099, the “RMC-6236: RevMed PRISM: AUC” value (cell line OCIC5X_OVARY) was 0.7352 and the “RMC-6236: RevMed PRISM: AUC” value (cell line OCILY3_HAEMATOPOIETIC_AND_LYMPHOID_TISSUE) was 0.9011. The “RMC-6236: RevMed PRISM: AUC” value (cell line OCILY18_HAEMATOPOIETIC_AND_LYMPHOID_TISSUE) was 0.7598, the “RMC-6236: RevMed PRISM: AUC” value (cell line OCILY19_HAEMATOPOIETIC_AND_LYMPHOID_TISSUE, NRAS p.Q61K) was 0.4103 and the “RMC-6236: RevMed PRISM: AUC” value (cell line OCIM1_HAEMATOPOIETIC_AND_LYMPHOID_TISSUE) was 0.5915. For the same compound, the “RMC-6236: RevMed PRISM: AUC” value (cell line OCIP5X_OVARY) was 0.9925, the “RMC-6236: RevMed PRISM: AUC” value (cell line OE33_OESOPHAGUS) was 0.6679 and the “RMC-6236: RevMed PRISM: AUC” value (cell line ONS76_CENTRAL_NERVOUS_SYSTEM, NRAS p.Q61R) was 0.4401. For the same compound, the “RMC-6236: RevMed PRISM: AUC” value (cell line OVCAR8_OVARY, KRAS p.P121H) was 0.8663, the “RMC-6236: RevMed PRISM: AUC” value (cell line OVISE_OVARY) was 0.9548 and the “RMC-6236: RevMed PRISM: AUC” value (cell line OVK18_OVARY, KRAS p.A59G) was 0.8365. The “RMC-6236: RevMed PRISM: AUC” value (cell line PA1_OVARY, NRAS p.G12D) was 1, the “RMC-6236: RevMed PRISM: AUC” value (cell line PC3_PROSTATE) was 0.9371 and the “RMC-6236: RevMed PRISM: AUC” value (cell line PECAPJ15_UPPER_AERODIGESTIVE_TRACT) was 0.7052. For the same compound, the “RMC-6236: RevMed PRISM: AUC” value (cell line PECAPJ41CLONED2_UPPER_AERODIGESTIVE_TRACT) was 0.6126, the “RMC-6236: RevMed PRISM: AUC” value (cell line PECAPJ49_UPPER_AERODIGESTIVE_TRACT) was 0.5656 and the “RMC-6236: RevMed PRISM: AUC” value (cell line PEDS005TSUSP_KIDNEY) was 0.665. For the same compound, the “RMC-6236: RevMed PRISM: AUC” value (cell line PK45H_PANCREAS, KRAS p.G12D) was 0.7154, the “RMC-6236: RevMed PRISM: AUC” value (cell line RCHACV_HAEMATOPOIETIC_AND_LYMPHOID_TISSUE, KRAS p.V14I, HRAS p.A11T) was 0.9332 and the “RMC-6236: RevMed PRISM: AUC” value (cell line RCK8_HAEMATOPOIETIC_AND_LYMPHOID_TISSUE) was 0.8295. The “RMC-6236: RevMed PRISM: AUC” value (cell line RCM1_LARGE_INTESTINE, KRAS p.G12V) was 0.2686, the “RMC-6236: RevMed PRISM: AUC” value (cell line RD_SOFT_TISSUE, NRAS p.Q61H) was 0.3982 and the “RMC-6236: RevMed PRISM: AUC” value (cell line RH30_SOFT_TISSUE) was 0.7963. The “RMC-6236: RevMed PRISM: AUC” value (cell line RI1_HAEMATOPOIETIC_AND_LYMPHOID_TISSUE) was 0.8097, the “RMC-6236: RevMed PRISM: AUC” value (cell line SCC9_UPPER_AERODIGESTIVE_TRACT, HRAS p.L133R) was 0.5395 and the “RMC-6236: RevMed PRISM: AUC” value (cell line SEM_HAEMATOPOIETIC_AND_LYMPHOID_TISSUE) was 0.9033. For the same compound, the “RMC-6236: RevMed PRISM: AUC” value (cell line SF295_CENTRAL_NERVOUS_SYSTEM) was 0.8595, the “RMC-6236: RevMed PRISM: AUC” value (cell line SH4_SKIN) was 0.9443 and the “RMC-6236: RevMed PRISM: AUC” value (cell line SIMA_AUTONOMIC_GANGLIA) was 0.7949. For the same compound, the “RMC-6236: RevMed PRISM: AUC” value (cell line SISO_CERVIX, KRAS p.G12D) was 0.5418, the “RMC-6236: RevMed PRISM: AUC” value (cell line SJSA1_BONE) was 0.6169 and the “RMC-6236: RevMed PRISM: AUC” value (cell line SKMEL2_SKIN, NRAS p.Q61R) was 0.7094. For the same compound, the “RMC-6236: RevMed PRISM: AUC” value (cell line SKMEL3_SKIN) was 1.
